Hit rate of the full screen: of about 110,000 compounds, about 230 (0.21%) showed an effect of 50% or more. This is one part of the list.
Each compound was assayed against DPAP1 (Plasmodium falciparum, UniProt Q8IIJ9) (assay: primary screen, percent inhibition; read by cleavage of a fluorogenic dipeptide substrate; higher = more effect of the substance).
Sequence of DPAP1 (Q8IIJ9 whole entry, looked up): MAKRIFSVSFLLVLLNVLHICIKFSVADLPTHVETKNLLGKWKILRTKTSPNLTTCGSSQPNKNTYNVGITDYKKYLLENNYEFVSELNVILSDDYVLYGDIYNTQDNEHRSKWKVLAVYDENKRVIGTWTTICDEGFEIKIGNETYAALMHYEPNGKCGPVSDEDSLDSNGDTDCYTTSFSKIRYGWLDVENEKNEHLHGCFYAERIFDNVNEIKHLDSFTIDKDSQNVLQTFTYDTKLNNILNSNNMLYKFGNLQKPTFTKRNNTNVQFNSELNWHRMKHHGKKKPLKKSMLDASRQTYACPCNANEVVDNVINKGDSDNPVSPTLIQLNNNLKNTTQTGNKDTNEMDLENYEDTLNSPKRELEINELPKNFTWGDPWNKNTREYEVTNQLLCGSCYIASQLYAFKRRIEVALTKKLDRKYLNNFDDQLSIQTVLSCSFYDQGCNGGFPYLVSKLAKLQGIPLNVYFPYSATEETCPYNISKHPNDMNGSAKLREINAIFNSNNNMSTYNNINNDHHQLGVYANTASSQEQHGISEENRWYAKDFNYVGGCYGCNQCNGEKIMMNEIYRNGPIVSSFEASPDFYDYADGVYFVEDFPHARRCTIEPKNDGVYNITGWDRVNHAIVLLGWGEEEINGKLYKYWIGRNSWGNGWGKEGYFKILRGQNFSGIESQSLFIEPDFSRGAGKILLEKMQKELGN
Parameters: species or system P. falciparum D10 trophozoite lysates; single well
CN1CCN(S(=O)(=O)c2cccnc2Nc2cccc(C(F)(F)F)c2)CC1 was tested, and the “% Inhibition @ 10 uM” value was -1.73%.
CN(C(=O)CCc1nc(CN2CCN(C(=O)c3ccc4c(c3)OCO4)CC2)no1)C1CCCCC1 was tested, and the “% Inhibition @ 10 uM” value was -0.717%.
Cc1cccc(C(=O)NCCc2ccc(S(N)(=O)=O)cc2)c1 was tested, and the “% Inhibition @ 10 uM” value was -14.6%.
With O=C(c1cccs1)N1CCC(c2ccccc2)C1 (stereo not shown) the “% Inhibition @ 10 uM” value was -2.87%.
In the case of CCc1ccc(Oc2nc3ccccn3c(=O)c2/C=C(\C#N)C(=O)N2CCOCC2)cc1, the “% Inhibition @ 10 uM” value is reported as -0.828%.
In the case of O=C(Cn1cc(SCc2ccc(F)cc2)c2ccccc21)N1CCOCC1, the “% Inhibition @ 10 uM” value is reported as 4.54%.
Cc1ccc(-n2nc(C)c3c(C)c(CCC(=O)NC(C)(C)C)c(C)nc32)cc1C was tested, and the “% Inhibition @ 10 uM” value was -8.02%.
With FC(F)(F)c1ccccc1CN1CCN(C/C=C/c2ccccc2)CC1 the “% Inhibition @ 10 uM” value was -1.92%.
With Cc1cccc(Cn2cnc3c(nnn3Cc3ccccc3F)c2=O)c1 the “% Inhibition @ 10 uM” value was -0.431%.
In the case of COc1ccc(-c2cc(C(=O)N3CCOCC3)c3c(-c4ccc(Cl)cc4)[nH]nc3n2)cc1, the “% Inhibition @ 10 uM” value is reported as 11.7%.
For CC(C)Cn1c(=O)c2ccccc2n2c(CCC(=O)NC3CCCCC3)nnc12, the “% Inhibition @ 10 uM” value was 0.981%.
In the case of CCN1CCC(NCCc2ccc(Cl)cc2Cl)CC1, the “% Inhibition @ 10 uM” value is reported as 2.71%.
In the case of Cc1ccc2onc(CNC(=O)NCCN(C)C3CCCCC3)c2c1, the “% Inhibition @ 10 uM” value is reported as -1.11%.
For CC(C)c1ccc(S(=O)(=O)c2cnc(S)nc2N)cc1, the “% Inhibition @ 10 uM” value was 6.41%.
With CCO/C(O)=C1\C(C)=Nc2ncnn2C1c1c[nH]c2ccccc12 (stereo not shown) the “% Inhibition @ 10 uM” value was -5.51%.
For Cc1ccc(S(=O)(=O)Cc2ccc(C(=O)NCc3cccs3)o2)cc1, the “% Inhibition @ 10 uM” value was 2.14%.
Cc1cccc(OCc2nc3c4c5c(sc4ncn3n2)C(C)(C)NC(C)(C)C5)c1C was tested, and the “% Inhibition @ 10 uM” value was -3.28%.
In the case of CN(CC(=O)Nc1ccc2c(c1)OCO2)S(=O)(=O)c1ccccc1, the “% Inhibition @ 10 uM” value is reported as -5.98%.
In the case of CS(=O)(=O)C1=NN2C(=N)/C(=C\c3ccc(-c4ccccc4Cl)o3)C(=O)N=C2S1, the “% Inhibition @ 10 uM” value is reported as 0.163%.
With Cc1ccc(N2CCN(Cc3[nH]cnc3C)CC2)cc1 the “% Inhibition @ 10 uM” value was 1.9%.
CCOC(=O)N1CCc2c(sc(NC(=O)CN)c2C(=O)c2ccccc2Cl)C1 was tested, and the “% Inhibition @ 10 uM” value was -2.45%.
In the case of Cc1ccc2cc(C=O)c(O)nc2c1, the “% Inhibition @ 10 uM” value is reported as 2.79%.
With O=C(c1cccs1)N1CCN(C(=O)c2cccs2)CC1 the “% Inhibition @ 10 uM” value was -2.42%.
With O=C(O)c1cccc(-n2c(=O)c3cc4c(=O)n(-c5cccc(C(=O)O)c5)c(=O)c4cc3c2=O)c1 the “% Inhibition @ 10 uM” value was 3.47%.
For Cc1ccc(CCNC(=O)CN2C(=O)CSc3ncccc32)cc1, the “% Inhibition @ 10 uM” value was 4.22%.
With CCN(CC)C(=O)c1ccc(CN2CCOCC2)o1 the “% Inhibition @ 10 uM” value was -4.32%.
In the case of O=C(O)Cn1cc2c(n1)CCCC2, the “% Inhibition @ 10 uM” value is reported as 3.24%.
In the case of OC1=C2C(=Nc3nc(-c4ccccc4)nn3C2c2ccccc2)CCC1 (stereo not shown), the “% Inhibition @ 10 uM” value is reported as -7.4%.
With CCN1CCN(c2nc3c(c(=O)n(C)c(=O)n3C)n2CC(O)c2ccccc2)CC1 (stereo not shown) the “% Inhibition @ 10 uM” value was -1.11%.
With CCOCCCNC(=O)c1c(NC(=O)Cc2coc3ccc(CC)cc23)sc2c1CCC2 the “% Inhibition @ 10 uM” value was -0.671%.
CCCCN/C(C)=C\S(=O)(=O)c1ccccc1 was tested, and the “% Inhibition @ 10 uM” value was -3.92%.
In the case of O=C(Nc1ccc(F)cc1F)c1cccc(Br)c1, the “% Inhibition @ 10 uM” value is reported as 4.22%.
With CCC(Nc1ccc([N+](=O)[O-])cc1[N+](=O)[O-])C(=O)O (stereo not shown) the “% Inhibition @ 10 uM” value was -4.01%.
For COc1cc(OC)cc(-n2nnc(-c3nsc(NC(=O)c4ccc(C)cc4)n3)c2C)c1, the “% Inhibition @ 10 uM” value was 3.95%.
In the case of O=C1N=C(N2CCCCC2)S/C1=C\c1ccco1, the “% Inhibition @ 10 uM” value is reported as -1.78%.
CNC(=O)c1cc2c(=O)n3cccc(C)c3nc2n(CCOC)c1=N was tested, and the “% Inhibition @ 10 uM” value was -1.47%.
With O=C(O)c1nccnc1C(=O)Nc1ccccc1[N+](=O)[O-] the “% Inhibition @ 10 uM” value was -7.87%.
In the case of CCc1c(C)c2ccc3c(c2oc1=O)CN(c1cc(C)ccn1)CO3, the “% Inhibition @ 10 uM” value is reported as -1.28%.
In the case of C/C(=C\C(=O)Nc1ccccn1)Nc1ccccn1, the “% Inhibition @ 10 uM” value is reported as 3.76%.
For O=C(/C=C/c1ccco1)N(Cc1cccc(F)c1)C1CCS(=O)(=O)C1 (stereo not shown), the “% Inhibition @ 10 uM” value was -1.35%.
For Cc1ccc(-c2cn3nc(N4CCC(C(=O)NC(C)C)CC4)sc3n2)cc1, the “% Inhibition @ 10 uM” value was 2.22%.
With CCOC(=O)c1sc2nc(-c3ccccc3)ccc2c1N the “% Inhibition @ 10 uM” value was 3.03%.
In the case of Cn1c(=O)c2c(c3ccccc31)OC(C)(C)CC2, the “% Inhibition @ 10 uM” value is reported as -1.06%.
In the case of Clc1ccccc1-c1nnc(-c2ccc(-c3ccccc3)cc2)o1, the “% Inhibition @ 10 uM” value is reported as -8.01%.
CCN1C(=O)N/C(=C/c2ccc(-c3ccc(C(=O)O)cc3C)o2)C1=O was tested, and the “% Inhibition @ 10 uM” value was -0.334%.
O=C(Nc1ccc2nn(-c3ccc(Br)cc3)nc2c1)c1ccc2c(c1)OCCO2 was tested, and the “% Inhibition @ 10 uM” value was -4.59%.
With O=Cc1cn(Cc2cccc(Cl)c2)c2ccccc12 the “% Inhibition @ 10 uM” value was -6.4%.
CC1(C)CC2(CC(C)(C)N1)OC(=O)N(CCCO)C2(C)O (stereo not shown) was tested, and the “% Inhibition @ 10 uM” value was 4.61%.
For Cn1c(=O)c2sccc2n2c(CCC(=O)N3CCN(c4ccccn4)CC3)nnc12, the “% Inhibition @ 10 uM” value was -1.71%.
CN(CC(=O)NCc1ccccc1Cl)S(=O)(=O)c1cc(Cl)ccc1Cl was tested, and the “% Inhibition @ 10 uM” value was -5.57%.
In the case of O=C(COc1ccc(Cl)cc1Cl)Nc1ccc(Br)cc1, the “% Inhibition @ 10 uM” value is reported as -5.62%.
For Cc1nc2scc(C)n2c(=O)c1S(=O)(=O)NCCc1ccc(Cl)cc1, the “% Inhibition @ 10 uM” value was 1.99%.
For O/N=C(\c1ccccc1)c1cc2ccccc2o1, the “% Inhibition @ 10 uM” value was -1.56%.
With O=C(c1ccco1)N1CCN(C2CC(=O)N(c3ccccc3)C2=O)CC1 (stereo not shown) the “% Inhibition @ 10 uM” value was 11.6%.
With N#C/C(=C\c1cn(Cc2ccccc2Cl)c2ccccc12)c1nn(CCO)c(N)c1C#N the “% Inhibition @ 10 uM” value was -1.84%.
With COCCNc1ncnc2c1c(-c1ccccc1)cn2-c1cccc(Cl)c1 the “% Inhibition @ 10 uM” value was 2.72%.
Cc1cc2ccccc2c(=O)n1CC(=O)NCC(=O)N1CCC(Cc2ccccc2)CC1 was tested, and the “% Inhibition @ 10 uM” value was -0.363%.
O=C(/C=C/c1cccs1)Nc1ncc(Cc2cccc(C(F)(F)F)c2)s1 was tested, and the “% Inhibition @ 10 uM” value was -1.92%.
CCOc1ccccc1NC(=O)c1ccccn1 was tested, and the “% Inhibition @ 10 uM” value was 5.69%.
In the case of CN1CCC(NCc2ccccc2C(F)(F)F)CC1, the “% Inhibition @ 10 uM” value is reported as -4.95%.
For CCOC(=O)c1ccc(CN(Cc2ccccc2)S(=O)(=O)c2ccc(OC)cc2)cc1, the “% Inhibition @ 10 uM” value was -1.99%.
COc1cccc(OC)c1OCCN1CCCCC1 was tested, and the “% Inhibition @ 10 uM” value was -1.42%.
Cc1nn(-c2ccccc2)c2c1C(c1ccc(Br)cc1)C(C#N)=C(N)O2 (stereo not shown) was tested, and the “% Inhibition @ 10 uM” value was -5.41%.
Cc1c(Cl)cccc1NC(=O)[C@@H]1C[C@@H]1c1ccccc1 was tested, and the “% Inhibition @ 10 uM” value was 6.18%.
With COCCNC(=O)CSCc1nc(-c2ccc(OC)cc2)oc1C the “% Inhibition @ 10 uM” value was -1.05%.
With O=C1c2n[nH]c(-c3ccccc3O)c2C(c2cccc(Br)c2)N1Cc1ccco1 (stereo not shown) the “% Inhibition @ 10 uM” value was -1.35%.
For COc1cccc(N(CC(=O)N2CCN(c3ccccc3F)CC2)S(=O)(=O)c2ccccc2)c1, the “% Inhibition @ 10 uM” value was 2.01%.
CN1CCC(N(C)CCCc2ccccc2)CC1 was tested, and the “% Inhibition @ 10 uM” value was 2.91%.
C=CCNC(=O)/C(C#N)=C/c1c(Oc2cccc(C)c2)nc2c(C)cccn2c1=O was tested, and the “% Inhibition @ 10 uM” value was -1.43%.
With CC(=O)N1c2c(ccc3ccccc23)C(C)CC12CCCCC2 (stereo not shown) the “% Inhibition @ 10 uM” value was 4.26%.
O=C1C2CC=CCC2C(=O)N1CCc1ccccc1Cl (stereo not shown) was tested, and the “% Inhibition @ 10 uM” value was -6.5%.
With O=C(CN1C(=O)c2ccccc2S1(=O)=O)NCCSCc1ccco1 the “% Inhibition @ 10 uM” value was -2.34%.
With Cc1ccc(N2C(=O)C3C4CCC(C4)C3C2=O)cc1 (stereo not shown) the “% Inhibition @ 10 uM” value was 3.1%.
With N#CC1=C(N)Oc2cc(O)ccc2C1c1cc(Br)cs1 (stereo not shown) the “% Inhibition @ 10 uM” value was 5.08%.
In the case of COCC(=O)Nc1ccc(C(C)C)cc1, the “% Inhibition @ 10 uM” value is reported as 2.65%.
In the case of O=C1CCCc2c1c1ccccc1c(=O)n2Cc1ccccc1, the “% Inhibition @ 10 uM” value is reported as -4.31%.
In the case of Cn1cccc1/C=C1/CCC(C2CCCC2)C1=O (stereo not shown), the “% Inhibition @ 10 uM” value is reported as -5.51%.
In the case of COc1ccc(/C=C(\C#N)C(=O)O)cc1, the “% Inhibition @ 10 uM” value is reported as 2.59%.
With Cc1nn(CC(=O)NCc2ccc3c(c2)OCO3)c(=O)c2cccn12 the “% Inhibition @ 10 uM” value was -7.17%.
In the case of O=C(COc1ccc(N2C(=O)C3=C(CCCC3)C2=O)cc1)N1CCCCC1, the “% Inhibition @ 10 uM” value is reported as -6.25%.
With Cn1nnnc1SCC(=O)NCc1cccc(C(=O)O)c1 the “% Inhibition @ 10 uM” value was -1.43%.
In the case of Cc1cc(C)n(CCc2nc3c4ccccc4nc(NCc4ccc(F)cc4)n3n2)n1, the “% Inhibition @ 10 uM” value is reported as 0.981%.
For O=C(N1CCN(c2ccccc2F)CC1)C12C[C@H]3C[C@@H](C1)C[C@@H](C2)C3, the “% Inhibition @ 10 uM” value was -4.91%.
In the case of COc1ccc(CN2CCC(Cc3ccccc3)CC2)cc1Br, the “% Inhibition @ 10 uM” value is reported as 0.708%.
With O=C(COc1ccccc1)N1CCN=C1c1ccccc1 the “% Inhibition @ 10 uM” value was 4.18%.
Cc1oc2ncn(C)c(=O)c2c1C(=O)NCCN(C)C was tested, and the “% Inhibition @ 10 uM” value was -5.76%.
Cc1ccc(-c2ccc(C(=O)N[C@@H](CC(C)C)C(=O)NCC#N)cc2)cc1C was tested, and the “% Inhibition @ 10 uM” value was -6.46%.
For Cn1c2ccccc2c2cnn(CC(=O)NCCCN3CCOCC3)c(=O)c21, the “% Inhibition @ 10 uM” value was -0.439%.
CCOC(=O)N1CCN(C(=O)CN(Cc2cccc(C)c2)S(=O)(=O)c2ccc(Cl)cc2)CC1 was tested, and the “% Inhibition @ 10 uM” value was 0.408%.
In the case of N#Cc1c(N)n(-c2ccccc2O)c2nc3ccccc3nc12, the “% Inhibition @ 10 uM” value is reported as 3.9%.
With COc1ccc(CC/N=C/C2C(=O)N(c3nc4ccccc4s3)N=C2C(F)(F)F)cc1OC (stereo not shown) the “% Inhibition @ 10 uM” value was -4.24%.
For COc1cc(CN(C(=O)/C(=C/c2cccnc2)NC(=O)c2ccccc2)C2CCCCC2)ccc1O, the “% Inhibition @ 10 uM” value was -5%.
For CC(=O)c1cccc(NC(=O)CCCOc2ccc(Cl)cc2Cl)c1, the “% Inhibition @ 10 uM” value was -4.39%.
In the case of Cc1ccccc1NC(=O)c1ccc(OC(C)C)cc1, the “% Inhibition @ 10 uM” value is reported as -3.94%.
For CCSc1nc(C)c(Cc2cc(C)ccc2C)c(O)n1, the “% Inhibition @ 10 uM” value was 9.78%.
With Cn1c(=O)c2c(ncn2CCCC(=N)N2CCOCC2)n(C)c1=O the “% Inhibition @ 10 uM” value was 5.66%.
With COc1c(Cl)cc(Cl)cc1C(=O)Nc1ccc(Br)cc1 the “% Inhibition @ 10 uM” value was 0.989%.
With Cc1ccc(OCC(=O)Nc2ccc(S(=O)(=O)N3CCCC3)cc2)c(Br)c1 the “% Inhibition @ 10 uM” value was 4.53%.
With COc1ccccc1-n1nnc(-c2nc(-c3cccnc3)no2)c1N the “% Inhibition @ 10 uM” value was 1.4%.
In the case of CCOC(=O)c1cccc(Cn2nnc3sc(-c4ccccc4)cc3c2=O)c1, the “% Inhibition @ 10 uM” value is reported as 7.04%.
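Also: 30 min substrate incubation versus DMSO and 10 µM JCP410 controls.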
